From PubChem BioAssay (Tox21)
Several values for one entry are separate records, joined by “and”; a condition that tells them apart may be missing. Equal values may be shown once. The shares of active, inactive and inconclusive entries below differ from those in the screen. Potencies beside an inconclusive call are fits to weak or partial responses and may not hold up. Activity calls are given as the source filed them. Unless noted, the call rests on the fitted dose curve; in most records, active means well fitted curve in the direction sought with a large enough effect in the repeat runs; inconclusive means weak or mixed curves; inactive means no such curve, though single readings can be large; an effect the other way counts as inactive or inconclusive.

Target: Androgen receptor (Homo sapiens) (UniProt P10275)
Sequence of UniProt P10275 (P10275 whole entry, looked up): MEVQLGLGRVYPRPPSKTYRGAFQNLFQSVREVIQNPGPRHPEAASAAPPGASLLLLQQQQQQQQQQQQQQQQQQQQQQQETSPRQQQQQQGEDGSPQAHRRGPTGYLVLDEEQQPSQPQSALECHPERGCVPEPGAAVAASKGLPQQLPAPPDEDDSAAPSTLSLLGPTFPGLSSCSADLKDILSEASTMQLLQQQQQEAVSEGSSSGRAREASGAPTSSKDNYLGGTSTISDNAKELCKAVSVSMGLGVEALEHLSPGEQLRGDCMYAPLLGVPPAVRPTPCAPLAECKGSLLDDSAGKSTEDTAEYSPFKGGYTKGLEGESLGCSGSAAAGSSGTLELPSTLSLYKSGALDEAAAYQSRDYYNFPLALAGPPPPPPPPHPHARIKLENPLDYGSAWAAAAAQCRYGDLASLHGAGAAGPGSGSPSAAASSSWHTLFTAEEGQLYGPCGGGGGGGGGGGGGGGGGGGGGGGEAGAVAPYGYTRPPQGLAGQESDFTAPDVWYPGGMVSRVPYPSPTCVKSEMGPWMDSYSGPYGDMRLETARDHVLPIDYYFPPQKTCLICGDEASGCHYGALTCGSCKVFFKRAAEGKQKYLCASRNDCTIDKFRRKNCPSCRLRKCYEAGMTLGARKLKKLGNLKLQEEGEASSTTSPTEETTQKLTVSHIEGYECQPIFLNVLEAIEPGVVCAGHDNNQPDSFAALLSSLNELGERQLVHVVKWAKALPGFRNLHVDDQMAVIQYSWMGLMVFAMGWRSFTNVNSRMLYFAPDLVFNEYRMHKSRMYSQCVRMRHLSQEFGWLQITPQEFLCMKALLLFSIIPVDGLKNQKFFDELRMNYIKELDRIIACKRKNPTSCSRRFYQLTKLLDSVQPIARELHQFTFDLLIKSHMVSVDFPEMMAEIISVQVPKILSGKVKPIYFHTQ
Assay: qHTS assay to identify small molecule agonists of the androgen receptor (AR) signaling pathway (AID 743036; active means well fitted activation curve with a large enough effect in the signal ratio in the repeat runs, with a control signal flat, not every such curve was filed as active; inconclusive means weak or mixed curves, or effect the other way; inactive means no such curve, though single readings can be large or run the other way; the % refers to the signal ratio)
Conditions: HEK293 AR-UAS-bla GripTite, beta-lactamase FRET ratio, 16 h; activation: at 62.4 µM (top of the series) unless noted
How it was run: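 Following a 4 h settling period, AR-UAS-bla HEK293 cells were dosed with compounds for 16 h at 37C. A 2 h room-temperature incubation with LiveBLAzer B/G FRET substrate preceded the fluorescence measurement.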
On the % scale 0 is the no-effect control and ±100 the full control effect; potency means the concentration at half of the fitted maximal effect; tags describe the fitted curve by direction and shape or compound fluorescence and quenching.

Row | Compound | Potency | activation
1 | Oc1cccc(-c2c3nc(c(-c4cccc(O)c4)c4ccc([nH]4)c(-c4cccc(O)c4)c4nc(c(-c5cccc(O)c5)c5ccc2[nH]5)CC4)C=C3)c1 | inconclusive: 21.3 µM [partial curve] and inconclusive: 16.9 µM [cytotoxic, partial curve] | 
2 | CNS(=O)(=O)c1cc(C(=O)N2CCC(CCN3C4CCC3CC(n3c(C)nc5ccccc53)C4)(c3cccc(F)c3)CC2)c(Cl)cc1F (configuration not stated) |  | inconclusive: 1.23%
3 | COc1ccc(C(=O)c2ccccc2)c(O)c1 | inconclusive: 12 µM [rising, partial curve, poor fit] and inconclusive: 30.4 µM [rising, partial curve, poor fit] and inconclusive: 38.9 µM [rising, partial curve, poor fit] | 

System: not listed separately
Assay: qHTS assay to identify small molecule antagonists of the androgen receptor (AR) signaling pathway using the MDA cell line - cell viability counter screen (AID 743041; further: nearly all actives have a fitted effect of over 45% in size)
Conditions: MDA-kb2 viability, CellTiter-Fluor, 16 h, cells co-treated with R1881 androgen agonist; viability change, negative = cytotoxic: at 70.3 µM (top of the series) unless noted
How it was run: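 R1881-driven MDA-kb2 AR-luc cells, 3,000/well, were dosed with library compounds for 16 h; cell health came from CellTiter-Fluor fluorescence in the reporter wells.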

Row | Compound | viability change, negative = cytotoxic | Potency
4 | CN(C)CCC=C1c2ccccc2C=Cc2ccccc21 | inactive: -19.6% | 
5 | CNS(=O)(=O)c1cc(C(=O)N2CCC(CCN3C4CCC3CC(n3c(C)nc5ccccc53)C4)(c3cccc(F)c3)CC2)c(Cl)cc1F (configuration not stated) |  | inconclusive: 68.6 µM [cytotoxic, single point]
6 | O=C(Nc1ccc2c(O)c(N=Nc3ccc(N=Nc4ccc(S(=O)(=O)O)cc4)cc3)c(S(=O)(=O)O)cc2c1)c1ccccc1 |  | active: 24.3 µM

System: not listed separately
Assay: qHTS assay to identify small molecule antagonists of the thyroid receptor (TR) signaling pathway - cell viability counter screen (AID 743064); further: nearly all actives have a fitted effect of over 50% in size
Conditions: GH3.TRE-Luc viability, CellTiter-Fluor, 24 h; activity change, negative = cytotoxic: at 70.3 µM (top of the series) unless noted
How it was run: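 CellTiter-Fluor readout, 30 min at 37 °C/5% CO2, following 23.5 h incubation of GH3.TRE-Luc cells with test compound and 1 nM T3 (final).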

Row | Compound | activity change, negative = cytotoxic | Potency
7 | COc1cc(OC)cc(OC)c1 | inactive: -2.91% | 
8 | CN(C)CCC=C1c2ccccc2C=Cc2ccccc21 |  | active: 15 µM
9 | COc1ccc(C(=O)c2ccccc2)c(O)c1 |  | inconclusive: 23.9 µM [rising, partial curve, poor fit]
10 | C=CCc1ccccc1OCC(O)CNC(C)C (configuration not stated) |  | inconclusive: 18.8 µM [cytotoxic, partial curve, poor fit]
11 | C/C=C(/C(=C/C)c1ccc(O)cc1)c1ccc(O)cc1 |  | inconclusive: 12.7 µM [cytotoxic, single point]
12 | CC(=O)O[C@]1(C(C)=O)CC[C@H]2[C@@H]3C=C(Cl)C4=CC(=O)CC[C@]4(C)[C@H]3CC[C@@]21C |  | inactive and inconclusive: 68.5 µM [cytotoxic, single point]
